# Data as given in patent publication US20040259942A1, “Modulation of stat activity” (priority 2001, published 2004).
# Numbered stars: 1 amine (or outer) side, 2 acyl side, 3 side chain; on linkers, the order of the positions; unused ones are H or OH. Bridge positions count the residues as written; N and C are the ends. Square brackets hold non-standard residues; d marks the D form. Peptide text beside a SMILES is read from it. I, II: the chains in the order shown. Actinocin(9to1) = Cc1c2oc3c(C)ccc(C(=O)[*:1])c3nc-2c(C(=O)[*:2])c(N)c1=O; NMeV = CN[C@H](C(=O)O)C(C)C; Sar = CNCC(=O)O
# Key:
# STAT1 and STAT3 [1] = assay type: cell-based, human; settings: for serum induction of STAT1 and 3 complexes: 200 μM pre-treatment 30 min, serum 2 h; for serum induction of STAT1 and STAT3 DNA-binding activity: Figure 11, lower panel; for serum stimulation of DNA binding by STAT1 and STAT3: pretreatment α-amanitin 2.5 hours, Actinomycin D 10 minutes; for levels of STAT1 and STAT3 activation by serum: inhibitors of transcription, FIG. 13 upper panel
# STAT1 and STAT3 [2] = test: H2O2 (ROS)-induced STAT DNA binding (EMSA); assay type: cell-based, human; settings: H2O2 increases intracellular ROS
# STAT1 and STAT3 [3] = assay type: cell-based, human
# Experimental: Extracts were cleared by centrifugation at 16,000×g for 10 minutes, snap-frozen in liquid N2 and stored at −80° C. Nuclear extracts were prepared in high salt hypertonic buffer (20 mM HEPES pH7.9, 420 mM NaCl, 20% glycerol, 1 mM EDTA, 1 mM EGTA, 0.2% NP-40, 20 mM NaF, 1 mM Na3 VO4, 1 mM Na4P2O7, 2 mM Benzamidine, 0.5 mM PMSF, 1 mM DTT and 1 μg/ml each of leupeptin, aprotinin and pepstatin.
# Nuclear extracts were prepared as described previously (11) in high salt hypertonic buffer (2 mM HEPES pH7.9, 420 mM NaCl, 20% glycerol, 1 mM EDTA, 1 mM EGTA, 20 mM NaF, 1 mM Na3VO4, 1 mM Na4P2O7, 2 mM Benzamidine, 0.5 mM PMSF, 1 mM DTT and 1 μg/ml each of leupeptin, aprotinin and pepstatin.
# STAT1 and STAT3 [4] = settings: ref (11); cited from earlier work
compound,measurement,setting,value
"CCCCCCCCCC(=O)CC(=O)N[C@H]1CCOC1=O [OdDHL, N-(3-oxo-dodecanoyl)-L-homoserine lactone]",DNA binding by STAT1 and STAT3 at sub-inhibitory concentration,"STAT1 and STAT3 [1]; BR293 cells, 20 μM",increase in DNA binding by STAT1 and STAT3
same,serum induction of STAT1 and 3 complexes,STAT1 and STAT3 [1]; BR293 cells,prevented serum induction of STAT1 and 3 complexes
same,concentration at which DNA binding by STAT3 was inhibited,"STAT1 and STAT3 [1]; BR293 nuclear extracts, serum stimulation",50 µM
same,STAT activation at sub-inhibitory concentration,"STAT1 and STAT3 [1]; MDA-MB-468 cells, 10 μM OdDHL",an increase is also observed
same,IC50,"STAT1 and STAT3 [1]; titration, FIG. 12, read-out: IC50 for the inhibition of serum-induced STAT1 and STAT3 DNA-binding activity",50 to 100 µM
same,activation of STAT1 and STAT3 DNA binding by H2O2,STAT1 and STAT3 [2],blocks the activation of STAT1 and STAT3 DNA binding by H2O2
same,activation of STAT3 by EGF in DNA-binding assays,"STAT1 and STAT3 [3]; MDA-MB-468 cells, 100 μM",enhanced
N#C/C(=C/c1ccc(O)c(O)c1)C(=O)NCc1ccccc1 [AG490],STAT3 activation by serum,STAT1 and STAT3 [4],interferes with STAT3 activation by serum
same,serum-dependent activation of STAT3,"STAT1 and STAT3 [1]; BR293 cells, pre-treatment 100 μM for 30 minutes",completely blocked STAT3 activation
same,serum induction of STAT1 and STAT3 DNA-binding activity,STAT1 and STAT3 [1],inhibited serum induction of STAT1 and STAT3 DNA-binding activity
same,STAT3 activity in cells growing in full medium,STAT1 and STAT3 [1]; MDA-MB468 cells,"reduced the elevated, serum-dependent level of STAT3 activity to a constitutive basal level"
same,STAT activation by EGF (DNA-binding),"STAT1 and STAT3 [3]; BT20 and MDA-MB-468 cells, 100 μM",abolished STAT activation by EGF
COc1cc2ncnc(Nc3cccc(Br)c3)c2cc1OC [PD 153035],delayed serum stimulation of STAT3 DNA-binding,"STAT1 and STAT3 [1]; serum-starved MDA-MB-468 cells pre-treated with inhibitor, FCS, result not shown",not affected
same,induction of SIE-bound STAT complexes by EGF,"STAT1 and STAT3 [3]; MDA-MB-468 cells, pre-treatment 100 nM for 30 minutes",abrogated the induction of SIE-bound STAT complexes by EGF
"Cc1c2oc3c(C)ccc(C(=O)N[C@@H]4C(=O)N[C@H](C(C)C)C(=O)N5CCC[C@H]5C(=O)N(C)CC(=O)N(C)[C@@H](C(C)C)C(=O)O[C@@H]4C)c3nc-2c(C(=O)N[C@@H]2C(=O)N[C@H](C(C)C)C(=O)N3CCC[C@H]3C(=O)N(C)CC(=O)N(C)[C@@H](C(C)C)C(=O)O[C@@H]2C)c(N)c1=O [Actinomycin D] (I: T[dV]P[Sar][NMeV] / II: T[dV]P[Sar][NMeV]; ester I:1-I:C, II:1-II:C; linker I:N-II:N via Actinocin(9to1))",serum stimulation of DNA binding by STAT1 and STAT3,STAT1 and STAT3 [1]; BR293 cells,blocked the stimulation of DNA binding by STAT1 and STAT3
same,levels of STAT1 and STAT3 activation by serum,STAT1 and STAT3 [1],reduce the levels of STAT1 and STAT3 activation by serum
α-amanitin,serum stimulation of DNA binding by STAT1 and STAT3,STAT1 and STAT3 [1]; BR293 cells,blocked the stimulation of DNA binding by STAT1 and STAT3
same,levels of STAT1 and STAT3 activation by serum,STAT1 and STAT3 [1],reduce the levels of STAT1 and STAT3 activation by serum
"CC(=O)N[C@@H](CS)C(=O)O [NAC, N-acetyl cysteine]",serum induction of STAT1 and STAT3 DNA-binding activity,STAT1 and STAT3 [1],inhibited serum induction of STAT1 and STAT3 DNA-binding activity
"CCCC(=O)CC(=O)N[C@H]1CCOC1=O [OHHL, N-(3-oxohexanoyl)-L-homoserine lactone]",serum induction of STAT1 and 3 complexes,STAT1 and STAT3 [1]; BR293 cells,but not OHHL
same,effect on STAT3 DNA binding,"STAT1 and STAT3 [1]; BR293 nuclear extracts, at 1001M as printed",only a marginal effect
same,activation of STAT1 and STAT3 DNA binding by H2O2,STAT1 and STAT3 [2],but not OHHL
same,activation of STAT3 by EGF in DNA-binding assays,"STAT1 and STAT3 [3]; MDA-MB-468 cells, 100 μM",unaffected
"c1ccc2c(c1)[I+]c1ccccc1-2 [DPI, diphenylene iodonium chloride]",serum induction of STAT1 and STAT3 DNA-binding activity,STAT1 and STAT3 [1],inhibited serum induction of STAT1 and STAT3 DNA-binding activity
